Test results: the supplement of paper PMC12217912
Some of the results follow. Sequences were assembled here from the parent chain. Inactive controls read about 0.05.

B1: TEV protease; numbered along this chain (parent)
chain: MGESLFKGPRDYNPISSSICHLTNESDGHTTSLYGIGFGPFIITNKHLFRRNNGTLVVQSLHGVFKVKDTTTLQQHLVDGRDMIIIRMPKDFPPFPQKLKFREPQREERICLVTTNFQTKSMSSMVSDTSCTFPSGDGIFWKHWIQTKDGQCGSPLVSTRDGFIVGIHSASNFTNTNNYFTSVPKNFMELLTNQEAQQWVSGWRLNADSVLWGGHKVFMVKPEEPFQPVKEATQL

Variants of: B1
Assay: raw area under fraction-flipped curve 0-4 h after induction (AUC4h, not background-subtracted), DNA-recorder readout of cleavage of the substrate (dimensionless); higher = more cleavage of the substrate by the protease variant
Conditions: temperature: 34 °C; time window: 0-4 h after rhamnose induction
Protocol: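 In vivo DNA recorder in E. coli TOP10(DE3) ΔrhaA at 34 °C. Each TEVp single-site mutant (parent TEVp 0) is paired with a single-site variant of the 7-mer TEVs (canonical ENLYFQ|S). The substrate sits between flexible linkers in a Bxb1-sfGFP-TEVs-SsrA fusion, so cleavage stabilises Bxb1 and speeds flipping of a recombination array, read by NGS. The value is the raw area under the fraction-flipped curve over 0-4 h after rhamnose induction (AUC4h), with ≥20 reads per time point. It is not background-subtracted; inactive controls average about 0.047.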
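Further: Bxb1 expression induced with 0.2% (w/v) L-rhamnose at OD600 near 0.5, cultures sampled hourly, flipped fraction per protease–substrate barcode pair counted by paired-end Illumina sequencing.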

Row | Variant | area with substrate EALYFQS | area with substrate ECLYFQS | area with substrate EELYFQS | area with substrate EFLYFQS | area with substrate EGLYFQS | area with substrate EHLYFQS | area with substrate EILYFQS | area with substrate EPLYFQS | area with substrate EQLYFQS | area with substrate ESLYFQS | area with substrate ETLYFQS | area with substrate EYLYFQS | area with substrate EDLYFQS | area with substrate EKLYFQS | area with substrate ELLYFQS | area with substrate EMLYFQS | area with substrate ERLYFQS | area with substrate EVLYFQS | area with substrate EWLYFQS
1 | N45S | 0.0948 | 0.0688 | 0.0884 | 0.0732 | 0.0322 | 0.0848 | 0.0768 | 0.0851 | 0.0809 | 0.0686 | 0.0695 | 0.0898 |  |  |  |  |  |  | 
2 | N45D | 0.0629 | 0.0577 | 0.0626 | 0.0558 | 0.062 | 0.0551 | 0.0637 | 0.0577 |  | 0.0637 |  | 0.0586 | 0.0645 | 0.0567 | 0.0646 | 0.0628 | 0.0522 | 0.0561 | 0.0545
3 | H47A | 0.0641 | 0.0708 | 0.0552 |  |  |  | 0.0577 |  |  | 0.0527 |  | 0.0426 | 0.0641 |  | 0.0423 | 0.0749 | 0.0485 |  | 0.0662
4 | H47R | 0.0668 | 0.056 | 0.0621 | 0.0299 | 0.0723 |  | 0.0647 | 0.0536 | 0.0635 |  |  | 0.0636 | 0.0785 |  | 0.0721 |  | 0.0635 | 0.0651 | 0.0411
5 | D69Q | 0.0742 | 0.103 | 0.123 |  |  |  | 0.078 | 0.141 | 0.104 | 0.0887 |  | 0.0895 | 0.123 | 0.0975 | 0.0753 |  | 0.0925 | 0.0587 | 0.0651
6 | D69H | 0.12 | 0.0997 | 0.0746 | 0.0614 | 0.0967 | 0.0816 | 0.0699 | 0.101 | 0.0962 | 0.107 |  |  | 0.121 | 0.113 | 0.0811 | 0.105 | 0.0989 | 0.091 | 
7 | I43V | 0.0897 | 0.119 |  |  | 0.111 |  | 0.0972 | 0.119 | 0.13 | 0.0978 | 0.111 | 0.0854 | 0.106 |  |  | 0.123 | 0.102 |  | 
8 | G63F | 0.114 | 0.0825 | 0.114 |  |  | 0.0895 | 0.0695 |  |  | 0.102 | 0.0985 |  | 0.11 |  | 0.069 | 0.123 | 0.0874 | 0.0734 | 0.0752
9 | G63N | 0.114 | 0.0671 | 0.112 | 0.0937 |  |  | 0.0928 | 0.1 | 0.105 | 0.0919 | 0.0684 | 0.102 | 0.119 |  | 0.0796 | 0.0776 | 0.0577 | 0.0525 | 
10 | G63M | 0.098 | 0.114 |  | 0.0759 | 0.0751 |  | 0.0801 | 0.142 |  | 0.0786 |  |  | 0.106 |  |  | 0.104 | 0.106 |  | 0.0817
11 | G63I | 0.116 | 0.0866 | 0.0802 |  |  | 0.0891 | 0.0789 |  | 0.116 | 0.0863 |  | 0.084 | 0.0946 | 0.0708 | 0.0857 | 0.118 | 0.087 | 0.0935 | 
12 | V57T | 0.104 | 0.116 | 0.141 | 0.0961 |  | 0.0997 | 0.108 |  | 0.126 | 0.102 |  |  |  | 0.0766 | 0.111 | 0.111 | 0.112 | 0.0952 | 0.118
13 | V57K | 0.0857 | 0.105 | 0.123 | 0.0909 | 0.109 | 0.0941 | 0.112 | 0.0968 | 0.124 | 0.109 | 0.113 |  | 0.159 | 0.123 | 0.088 | 0.094 | 0.135 |  | 
